Measured values taken from the BET-seq Pho4 binding data (Le et al. 2018).
The list shows a part of the results. Values were computed here from the reads of four pooled replicates and scatter widely.

molecular target: T1, Pho4 (S. cerevisiae) (UniProt P07270); experiment: relative binding free energy (BET-seq); higher = weaker binding; settings: reference: library average
T1 sequence: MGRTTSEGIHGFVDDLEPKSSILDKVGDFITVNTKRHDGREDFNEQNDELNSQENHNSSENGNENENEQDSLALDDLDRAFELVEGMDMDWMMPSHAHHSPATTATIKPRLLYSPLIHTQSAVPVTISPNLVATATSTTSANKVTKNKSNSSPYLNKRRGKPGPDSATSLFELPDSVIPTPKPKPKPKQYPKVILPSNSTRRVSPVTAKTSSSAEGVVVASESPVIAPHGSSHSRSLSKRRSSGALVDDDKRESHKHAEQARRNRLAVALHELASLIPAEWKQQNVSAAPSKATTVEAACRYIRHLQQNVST

| Sequence | relative binding free energy [kJ/mol] |
| --- | --- |
| AATGTCACGTGTGTGA | 0.377 |
| ATAATCACGTGTGAAG | 0.92 |
| TTGAGCACGTGAGCGG | 0.544 |
| TATTGCACGTGGATGT | 0 |
| CGTAGCACGTGCAGGT | -0.586 |
| TGCGCCACGTGGGGTA | -0.92 |
| AGGTTCACGTGAGATT | 1.63 |
| CTATGCACGTGGGAGG | -0.795 |
| CATTGCACGTGCTGTG | 0.167 |
| TTGGACACGTGAAGGA | 1.63 |
| CGTACCACGTGTGTGT | -0.335 |
| ATCGGCACGTGGGGCG | -0.837 |
| TAGGGCACGTGGGTAG | -1.13 |
| TGGGGCACGTGGGGTT | -0.502 |
| TGAAGCACGTGGGAGT | -0.628 |
| CGCTACACGTGGGGGT | -0.167 |
| TATTACACGTGGTTGT | 0.126 |
| TGTATCACGTGGTATC | 0.335 |
| TTGATCACGTGGTCTA | 0.837 |
| GTGTACACGTGATGTC | 1.42 |
| GTATGCACGTGCGTGC | -0.293 |
| GTGAGCACGTGGGGGA | -0.837 |
| GTAAGCACGTGTTAAT | 0 |

| Sequence | relative binding free energy [kJ/mol] |
| --- | --- |
| TTTTACACGTGTAGAC | 1.05 |
| GGGGTCACGTGATCGT | 1.51 |
| GATATCACGTGGGCGT | 0.586 |
| GTGGCCACGTGGTGGC | 0.0837 |
| AGTGGCACGTGTGAGA | -0.377 |
| TGTAGCACGTGCAATT | 0.126 |
| GTGCTCACGTGCTGGG | 0.711 |
| TATAGCACGTGTCGTA | -0.46 |
| TTGGTCACGTGGGTTG | 0.209 |
| TGGAGCACGTGACGGC | 0.335 |
| TTCTGCACGTGTTACG | 0.0418 |
| AGCAGCACGTGGGGAA | -0.126 |
| TGTGCCACGTGAAGGA | 0.335 |
| TTTGTCACGTGCATTC | 0.377 |
| CGGTTCACGTGCGGGT | 1.46 |
| TGTGGCACGTGGCGGG | -0.46 |
| TTGGTCACGTGTTTTG | 0.711 |
| AATTTCACGTGTCATT | 0.628 |
| CTGTGCACGTGGGCAT | -0.92 |
| AAATTCACGTGAGGTG | 1.92 |
| TGGTCCACGTGGGAGC | -0.418 |
| AGCGTCACGTGTTTTT | 0.293 |
| GGGGTCACGTGAAGTG | 1.46 |

| Sequence | relative binding free energy [kJ/mol] |
| --- | --- |
| TGCGACACGTGGGCGA | 0 |
| GTATGCACGTGCGGGC | -0.711 |
| ATATACACGTGGGGGC | -0.46 |
| TTCTTCACGTGCTTTG | 0.962 |
| TAGTGCACGTGACGTA | 0.628 |
| GATTGCACGTGTAAGG | 0.628 |
| GCTGGCACGTGGAATG | -0.209 |
| TGTAGCACGTGGATAT | -0.167 |
| TTCGTCACGTGTTAGT | 0.669 |
| ATTATCACGTGTTGAG | 0.837 |
| TGACGCACGTGTGTTG | -0.586 |
| CGTATCACGTGGGGAA | 0 |
| TGTAGCACGTGTAGAT | 0.544 |
| TAGAGCACGTGATAGT | -0.377 |
| AGGTACACGTGTGTGC | 0.0418 |
| GGGTTCACGTGTCCAG | 1.88 |
| CGCTGCACGTGATGTT | 0.293 |
| TGTTTCACGTGTCTGA | 1.13 |
| GTGTGCACGTGTTAGA | -0.126 |
| TTCTTCACGTGTGTAG | 1.59 |
| AGCTTCACGTGTAAGT | 1.38 |
| TTTTACACGTGGTCGT | 0.209 |
| TCGACCACGTGGGGTG | -1.09 |

| Sequence | relative binding free energy [kJ/mol] |
| --- | --- |
| AGTCGCACGTGGCTTG | -0.753 |
| TGCGGCACGTGAGGCG | 0.377 |
| ATGGGCACGTGTAAGG | -0.251 |
| GGTTGCACGTGCGTCG | 0.209 |
| GATGTCACGTGGGGGT | 0.167 |
| TATCGCACGTGTTGCG | 0.502 |
| TGTGACACGTGGAGGT | -0.209 |
| TGGTACACGTGTCGTG | 0.418 |
| GCATTCACGTGTAGGG | 0.753 |
| TGTGACACGTGTGTTA | 0.0418 |
| ACTGTCACGTGCTTGG | 0.418 |
| GACTTCACGTGGAGTT | 1.84 |
| GTGTTCACGTGCAGGG | 1.38 |
| TGTGTCACGTGATTAC | 0.586 |
| TTCGACACGTGGGGGT | -0.544 |
| GGGATCACGTGAGTAG | 2.09 |
| ATTGTCACGTGGGCGA | -0.544 |
| ATTAACACGTGGTGGG | -0.502 |
| GTGTGCACGTGTGAGG | 0.293 |
| TTTTTCACGTGTGTCT | 1.46 |
| GTTAACACGTGGTGCT | 0.251 |
| GAGTCCACGTGTTGTT | 0.502 |
| CGGTCCACGTGTGGTG | 0.167 |

| Sequence | relative binding free energy [kJ/mol] |
| --- | --- |
| TTGCACACGTGCGGGT | 0.0418 |
| TTTTTCACGTGGAGGT | 1.38 |
| TGTGTCACGTGAGTTA | 1.42 |
| ATTGCCACGTGGTGGT | -0.46 |
| ACTTTCACGTGTGATG | 1.76 |
| TTAACCACGTGGGTGG | -0.962 |
| TAGTTCACGTGCAGTA | 0.753 |
| GTTTGCACGTGGTAGC | 0.669 |
| GTGGTCACGTGGTGGC | 0.586 |
| GGGCTCACGTGCCGTG | 1.42 |
| GTTAGCACGTGGTAAT | -0.377 |
| GGGGTCACGTGTGGAC | 0.251 |
| AGAGTCACGTGAGGAG | 1.34 |
| TAAGGCACGTGTAGGT | -0.167 |
| ATAGGCACGTGTGTGG | -0.0837 |
| GGTGACACGTGGGATT | 0 |
| AATGACACGTGGTACG | 0.167 |
| GTGGACACGTGGCTCT | 0.167 |
| TGCCTCACGTGTGTGA | 0.753 |
| GGTTGCACGTGTAGAT | 0.46 |
| TGTCACACGTGAGTGT | 0.837 |
| TGCATCACGTGCGTTG | 0.962 |
| CACTTCACGTGTGTGT | 0.837 |
